Source: the supplement of paper PMC10126150
Sequences with one replicate were seen in a single cluster, so their values are uncertain.

The sequences below were run on ATP (assay: switch fluorescence ratio, 500 uM ATP over buffer (Cy3 cluster intensity, sum of 5 cycles each) (fold (ratio)); higher = stronger signal-on switching upon ATP binding; sequences stand for … in TCGTCGGCAGCGTCAGATGTGTATAAGAGACAGTTTTTTTTTTTTTTTTTTTTTTTTT…TC). Conditions: aptamer strand: ATP DNA aptamer (quencher-CACCTGGGGGAGTATTGCGGAGGAAGG + anchor), 100 nM annealed; ATP concentration: 500 uM; one replicate.
Method in brief: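 Clusters with intensities outside 100-1000 RFU were excluded. The remaining Cy3-labelled switching-strand clusters on a modified Illumina MiSeq flow-cell had been annealed to 100 nM quencher-labelled ATP aptamer and imaged in selection buffer, then after 15 min with 500 uM ATP at 22 °C, for five cycles separated by NaOH stripping and re-annealing. The fluorescence ratio, averaged per switch-domain sequence, is each cluster's summed target-cycle Cy3 intensity over its summed buffer-cycle Cy3 intensity.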
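Also: ATP exposure 15 min at 22 °C before imaging.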

| Sequence | switch fluorescence ratio |
| --- | --- |
| CCCTGGGGCT | 0.973 |
| CATTCCTGGA | 1 |
| ACGAACGGTT | 1.37 |
| TCAAACCCAA | 1.03 |
| AAACCCTTAG | 1.03 |
| GAAAGAAAAT | 1.03 |
| GGTACTGATT | 1.04 |
| GCTCAAGCA | 1.01 |
| CGACGGTGCT | 1.22 |
| TGGACTCAAC | 1.09 |
| CCCGGACGAC | 2.41 |
| TCTAGGGCAT | 1.1 |
| TTGTCTGATG | 0.977 |
| GTGATGGCTT | 0.98 |
| CCTATGTGAA | 1.11 |
| TTGTGGCGCT | 1 |
| GGATAGGACG | 1.11 |
| GAGACTTTCA | 1.1 |
| AGGTGGAGGC | 0.98 |
| TTAGAAGTG | 0.947 |
| TTCTGAATTA | 0.976 |
| TCACTAGTAG | 0.979 |

| Sequence | switch fluorescence ratio |
| --- | --- |
| TCGCCCTTGT | 1.02 |
| GTTTACTTTC | 1.03 |
| CTGGCGCTGA | 1.05 |
| GTCGTATTGC | 1.03 |
| CGCACGTCGA | 1.05 |
| AATGGCGAGG | 1 |
| CAACTGGGAA | 1.02 |
| TTGCAATCGT | 1.14 |
| ACCGGGTATT | 0.969 |
| CATGCCCTCC | 1.2 |
| TGGTTCGAGT | 1 |
| GCTGGAAATC | 1.05 |
| AGTGATACGC | 1.08 |
| TAATAGGGTA | 1.04 |
| TGCAGCCCTA | 1.01 |
| GTTGTAAATT | 0.97 |
| TCATCCCAGC | 1.96 |
| CTTATGGCCG | 0.954 |
| CAGCATGTCT | 0.999 |
| AAACTTTCA | 1.32 |
| GGACAGTAGA | 1.03 |
| CACCGAGTGT | 1.05 |

| Sequence | switch fluorescence ratio |
| --- | --- |
| ACCATCCGTG | 1.08 |
| TTTCTTCCCA | 1.07 |
| TTATTGTTTG | 1.02 |
| AATTTTGCCA | 0.987 |
| TGTTCTTACT | 1.03 |
| GGCTATGTAT | 0.96 |
| TCCGCTTAAA | 1.03 |
| CACTCTAGGG | 0.982 |
| GACGATTATC | 1.18 |
| CCTTTCATT | 1.02 |
| CGTACGACAC | 1.47 |
| TGGTAACAGT | 0.964 |
| CATAGGTGG | 0.984 |
| GCTTTACTT | 1.03 |
| TACCTAGGGA | 1.39 |
| GGGCTGGGCG | 1.07 |
| TTGCCGGCAT | 1.02 |
| TGAATTAAGA | 1.04 |
| TTTGATTGGC | 1.01 |
| ATAAGCACGA | 1.18 |
| ATCTGCAGCC | 1.29 |
| TGCGATGAAC | 1.19 |

| Sequence | switch fluorescence ratio |
| --- | --- |
| ATACCACTCC | 1.25 |
| CGGAGGAATG | 1.23 |
| GAACCATTTG | 1.01 |
| TCTGTA | 1.03 |
| CCGGATTTAT | 1.03 |
| TTGAGTTAAG | 0.998 |
| CCAGTGCCCA | 1.01 |
| GGTAGAAGGT | 0.949 |
| GGTCCATCCA | 1.01 |
| TGCAACGTTG | 0.967 |
| TGTACAAGGA | 0.993 |
| GTTTAAGAAC | 1.05 |
| GCGTTAGTT | 1.03 |
| CTAAGGTGAA | 1.09 |
| CTGATTAGGC | 1.06 |
| ACAGTGCATC | 1.03 |
| GCTAATCCCG | 1.07 |
| AAGTTGCGGT | 1.02 |
| GCTGGCTATG | 0.971 |
